Laboratory results reported in the supplement of paper PMC8512760.
Some of the results follow. Repeats are few or missing, and single values can be far off.

How the values were obtained:
Assay in all cases: cell viability relative to vehicle (% of vehicle); basal-like triple-negative breast cancer lines; higher = less cytotoxic
Conditions in all cases: 10 µM; 72 h
HCC-1143 = tested on: HCC-1143
HCC-1187 = tested on: HCC-1187
MDA-468 = tested on: MDA-468
SUM-149 = tested on: SUM-149
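Further: stably firefly luciferase-GFP labeled cells in 96-well plates, viability read as luciferase photon flux after d-luciferin addition, treated wells normalized to vehicle wells, single-dose high-throughput screen.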

Cl.O=S(=O)(c1cccc2cnccc12)N1CCCNCC1 [Fasudil (HA-1077) HCl]
cell viability (HCC-1143): 89.3
cell viability (HCC-1187): 101
cell viability (MDA-468): 86.4
cell viability (SUM-149): 105

Nc1nc(N)nc(-c2cc(Cl)ccc2Cl)n1 [Irsogladine]
cell viability (HCC-1143): 79.9
cell viability (HCC-1187): 91.4
cell viability (MDA-468): 121
cell viability (SUM-149): 103

CC(O)C1C(=O)N2C(C(=O)O)=C(SC3CNC(C(=O)N(C)C)C3)C(C)C12 (configuration not stated) [Meropenem]
cell viability (HCC-1143): 77.9
cell viability (HCC-1187): 105
cell viability (MDA-468): 86.1
cell viability (SUM-149): 93.9

COc1ccc2c(c1OC)C(=O)OC2C1c2c(cc3c(c2OC)OCO3)CCN1C.Cl (configuration not stated) [Noscapine HCl]
cell viability (HCC-1143): 84.3
cell viability (HCC-1187): 103
cell viability (MDA-468): 113
cell viability (SUM-149): 98.3

CS(=O)(=O)O.OC(CCN1CCCCC1)(c1ccccc1)c1ccccc1 [Pridinol Methanesulfonate]
cell viability (HCC-1143): 78.5
cell viability (HCC-1187): 114
cell viability (MDA-468): 116
cell viability (SUM-149): 90.3

CC(C)(C)c1cc(C(C)(C)C)c(NC(=O)c2c[nH]c3ccccc3c2=O)cc1O [Ivacaftor (VX-770)]
cell viability (HCC-1143): 110
cell viability (HCC-1187): 128
cell viability (MDA-468): 61.4
cell viability (SUM-149): 159

O=C(NC(Cc1cc(=O)[nH]c2ccccc12)C(=O)O)c1ccc(Cl)cc1 (configuration not stated) [Rebamipide]
cell viability (HCC-1143): 77
cell viability (HCC-1187): 84.6
cell viability (MDA-468): 108
cell viability (SUM-149): 101

CC(=O)SCC(Cc1ccccc1)C(=O)NCC(=O)OCc1ccccc1 (configuration not stated) [Racecadotril]
cell viability (HCC-1143): 79.4
cell viability (HCC-1187): 82.8
cell viability (MDA-468): 93.1
cell viability (SUM-149): 104

Cc1ccc(NC(=O)C2(c3ccc4c(c3)OC(F)(F)O4)CC2)nc1-c1cccc(C(=O)O)c1
cell viability (HCC-1143): 79.4
cell viability (HCC-1187): 101
cell viability (MDA-468): 105
cell viability (SUM-149): 108

C/C=C/C1=C(C(=O)O)N2C(=O)[C@@H](NC(=O)[C@H](N)c3ccc(O)cc3)[C@@H]2SC1 [Cefprozil]
cell viability (HCC-1143): 89.1
cell viability (HCC-1187): 93.8
cell viability (MDA-468): 110
cell viability (SUM-149): 99.7

Nc1nc(=O)c2ncn(COC(CO)CO)c2[nH]1 [Ganciclovir]
cell viability (HCC-1143): 89.9
cell viability (HCC-1187): 116
cell viability (MDA-468): 149
cell viability (SUM-149): 159

NC(N)=NS(=O)(=O)c1ccc(N)cc1 [Sulfaguanidine]
cell viability (HCC-1143): 68.3
cell viability (HCC-1187): 87.8
cell viability (MDA-468): 93.5
cell viability (SUM-149): 98.5

CO[C@H]1C[C@@H]2CC[C@@H](C)[C@@](O)(O2)C(=O)C(=O)N2CCCC[C@H]2C(=O)O[C@H]([C@H](C)C[C@@H]2CC[C@@H](O)[C@H](OC)C2)CC(=O)[C@H](C)/C=C(\C)[C@@H](O)[C@@H](OC)C(=O)[C@H](C)C[C@H](C)/C=C/C=C/C=C/1C [Rapamycin (Sirolimus)]
cell viability (HCC-1143): 93.6
cell viability (HCC-1187): 84
cell viability (MDA-468): 72.4
cell viability (SUM-149): 130

Cl.Cl.NCCc1cnc[nH]1 [Histamine 2HCl]
cell viability (HCC-1143): 84.8
cell viability (HCC-1187): 96.2
cell viability (MDA-468): 74
cell viability (SUM-149): 109

CCCN1CCCCC1C(=O)Nc1c(C)cccc1C.Cl (configuration not stated) [Ropivacaine HCl]
cell viability (HCC-1143): 73.1
cell viability (HCC-1187): 81.4
cell viability (MDA-468): 105
cell viability (SUM-149): 139

CCN(CC)CCOc1ccc(C(=C(Cl)c2ccccc2)c2ccccc2)cc1.O=C(O)CC(O)(CC(=O)O)C(=O)O [Clomiphene citrate]
cell viability (HCC-1143): 90.1
cell viability (HCC-1187): 108
cell viability (MDA-468): 102
cell viability (SUM-149): 92.4

CC1(C)SC2C(NC(=O)C(N)c3ccc(O)cc3)C(=O)N2C1C(=O)O (configuration not stated) [Amoxicillin]
cell viability (HCC-1143): 115
cell viability (HCC-1187): 105
cell viability (MDA-468): 106
cell viability (SUM-149): 110

O=c1cc[nH]c(=O)[nH]1 [Uracil]
cell viability (HCC-1143): 78.5
cell viability (HCC-1187): 96.1
cell viability (MDA-468): 120
cell viability (SUM-149): 123

Cc1c(-c2cnccn2)ssc1=S [Oltipraz]
cell viability (HCC-1143): 72
cell viability (HCC-1187): 76.7
cell viability (MDA-468): 102
cell viability (SUM-149): 79.4

CC1(C)O[C@@H]2C[C@H]3[C@@H]4CCC5=CC(=O)C=C[C@]5(C)[C@@]4(F)[C@@H](O)C[C@]3(C)[C@]2(C(=O)CO)O1 [Triamcinolone Acetonide]
cell viability (HCC-1143): 87.4
cell viability (HCC-1187): 124
cell viability (MDA-468): 180
cell viability (SUM-149): 195

CC(C)(C#N)c1cc(Cn2cncn2)cc(C(C)(C)C#N)c1 [Anastrozole]
cell viability (HCC-1143): 114
cell viability (HCC-1187): 113
cell viability (MDA-468): 122
cell viability (SUM-149): 170

FC(F)(F)c1ccc(CNc2ccc(Cc3c[nH]c4ncc(Cl)cc34)cn2)cn1 [Pexidartinib (PLX3397)]
cell viability (HCC-1143): 83.8
cell viability (HCC-1187): 88.9
cell viability (MDA-468): 103
cell viability (SUM-149): 102

CCCCC(=O)OC1(C(=O)CO)C(C)CC2C3CCC4=CC(=O)C=CC4(C)C3(F)C(O)CC21C (configuration not stated) [Betamethasone Valerate]
cell viability (HCC-1143): 83.7
cell viability (HCC-1187): 110
cell viability (MDA-468): 156
cell viability (SUM-149): 159
